± gives the standard deviation. Only a part is listed here, and it is no random draw.
test system: MIWI (PIWIL1) piRISC loaded with piRNA #1 (30 nt); experiment: pre-steady-state target cleavage rate (min^-1); MIWI and MILI are mouse PIWI proteins and EfPiwi is from a freshwater sponge; tags in brackets are library labels; higher = faster piRNA-guided slicing of the target; conditions: guide: piRNA #1 5'p-UGAGGUAGUAGGUUGUAUAGUAUCCAGAGG; auxiliary factor: 500 nM mouse GTSF1
Procedure, shortened: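 In HEPES–potassium acetate buffer at 33 °C, […] transcribed, DNA-blocked target RNA library was mixed with 1 nM active affinity-purified piRISC carrying one synthetic guide, with or without 500 nM GTSF1 partner protein, for 0–8 or 0–960 min. Uncleaved targets were sequenced and normalised to depth and to weakly complementary targets; three trials were pooled and k3 was capped at 0.0001 min^-1. The pre-steady-state cleavage rate followed from a burst-and-steady-state fit.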
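Note: 1 nM active piRISC with 0.1 nM target library at 33 °C single turnover.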

Row | Sequence | pre-steady-state target cleavage rate
1 | GGUCUGGAUACUAAACAACCAACUACCUCA | 0.117 ± 0.013
2 | GGAGACCUAUCUUUACAACCUUCUACCUCA | 0.0144 ± 0.0044
3 | GGAGACCUAUGAUAUCAACCUUCUUCCUCA | < 0.0001
4 | GGAGACCUUACCUAUACAACCUACUACCUCA | 0.489 ± 0.043
5 | GCUCUGGAUUCAAUACAACCUACUACCUCA | 0.42 ± 0.073
6 | GGAGACCUUACUAUACAACCACUACCUCA | 0.00306 ± 0.0027
7 | GCUCUGGUUUCUAUACAACCUACUACCUCA | 2 ± 0.12
8 | GCUCUGGAUACUAUACAACCAACUAGCUCA | 0.116 ± 0.018
9 | GGUCUGGUUACUAUACAACCUAGUACCUCA | 0.475 ± 0.046
10 | GGAGACCUAUGGAUACAACCUACUACCUCA | 0.0817 ± 0.012
11 | GCUCUGGAUACUAAACAACCUACUAGCUCA | 1.08 ± 0.1
12 | GGACACGAUACUAUACAACCUACUACCUCA | 1.51 ± 0.1
13 | GGAGACCUAUGAUAUGUACCUAGUACCACA | < 0.0001
14 | GGAGACCUAUGAAAAGAACCUACUACCUCA | < 0.0001
15 | GGAGACGAUACUAUAACAACCUACUACCUCA | 1.32 ± 0.1
16 | GGAGACCUAUGUAUACAACCUACUAGCUCA | 0.0329 ± 0.0067
17 | GGAGACCUAUCUAUACAUCCUACAACCUCA | 0.0883 ± 0.016
18 | GGAGUGGAUACUAAACAACCUACUACCUGA | 0.364 ± 0.063
19 | GGAGACCUAACUAUACAUCCUACUAGCUCA | 0.175 ± 0.034
20 | GCUCUGGAUACUAUACAACCUACUUCCACA | 0.312 ± 0.053

Row | Sequence | pre-steady-state target cleavage rate
21 | GGAGACCUAACUAUUCAAGCUACUACCUCA | 0.297 ± 0.034
22 | GGAGAGGAAACUAUACAACCUACUAGCUCA | 0.274 ± 0.053
23 | GGACUGGAUACUAUAGAAGCUACUACCUCA | 0.816 ± 0.05
24 | GGAGACCUAUCUACUACAACCUACUACCUCA | 0.0246 ± 0.0058
25 | GGAGACCUAUCUAUACAACCUACCUACCUCA | 0.297 ± 0.025
26 | GGAGACCUAUGUGAUACAACCUACUACCUCA | 0.0112 ± 0.0037
27 | GGAGACCUAUCUAUACAACCUACUUCGUCA | 0.0335 ± 0.0088
28 | GGUCUGCAUACUAUACAACGUACUACCUCA | 0.938 ± 0.065
29 | GGAGUGGAUAGUAUACAUCCUACUACCUCA | 0.651 ± 0.046
30 | CCUCUGGAUUGAAUACAACCUACUACCUCA | 0.962 ± 0.067
31 | GGAGACCUAUCUAUACAACCGACUACCUCA | 0.00636 ± 0.0026
32 | CCUCUGCAAACUAUACAACCUACUACCUCA | 1.97 ± 0.12
33 | GGAGACCAUACUUUACAACGUACUACCUCA | 0.375 ± 0.047
34 | GCUCUGGAUACUAUACAACCUAACUACCUCA | 0.025 ± 0.0054
35 | GGAGUGGUUACUAUACAACCUACUACCUCA | 1.62 ± 0.087
36 | GGAGACGAUAGUUUACAACCUACUACCUCA | 0.565 ± 0.075
37 | GGUCUGCAUACUAUACAACCAACUACCUCA | 0.133 ± 0.012
38 | GGUCUGGAUACUAUAGUUCCUACUACCUCA | 0.167 ± 0.029
39 | GGUCUGGAUACUAUACAACCUACUAACUCA | 0.115 ± 0.018
40 | GGAGAGGAUACUAUACAACCUACUAUCCUCA | 0.152 ± 0.028

From the supplement of paper PMC10338343
